Reference: article PMC7819943, “Rice protein-binding microarrays: a tool to detect cis-acting elements near promoter regions in rice”
Some of the results follow.

target: T1, OsWOX13 (Oryza sativa, UniProt Q5QMM3 1-267); test: protein-binding microarray (RPBM); PBS, 2% BSA, 51.3 ng/ul salmon testes DNA, 50 uM zinc acetate, 200 nM TF, 25 C, 1 h; high values mean tight binding; conditions: protein: recombinant; tags: N-terminal polyhistidine and DsRed monomer fusion (pET32a); label: CyDye5-dUTP incorporated in the synthesized complementary strand; 3' TTTTT single-stranded linker to array surface; dsDNA, one strand shown
T1 sequence: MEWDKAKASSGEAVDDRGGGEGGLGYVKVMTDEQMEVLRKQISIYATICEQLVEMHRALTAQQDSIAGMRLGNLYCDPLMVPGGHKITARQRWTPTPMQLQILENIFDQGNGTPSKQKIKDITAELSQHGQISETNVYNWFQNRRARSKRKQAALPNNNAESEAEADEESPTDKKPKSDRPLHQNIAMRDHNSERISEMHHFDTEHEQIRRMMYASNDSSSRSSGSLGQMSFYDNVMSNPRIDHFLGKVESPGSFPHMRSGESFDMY
Procedure, shortened: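 Polyhistidine-tagged DsRed fusions of transcription factors, joined at the N-terminus, were expressed in E. coli BL21-CodonPlus and isolated on Ni–NTA. They were incubated at 200 nM for 1 h at 25 °C on a custom Agilent array, double-stranded and BSA-blocked, in PBS with 2% BSA, salmon testes DNA and 50 µM zinc acetate. The binding signal is per-feature fluorescence intensity (arbitrary units) read on an Axon 4000B scanner after washing.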

Row | Sequence | binding signal
1 | GCCAGGATTAATTAGATGTCCTCGTTAAGGATGAGGAAAACGGAGTCACCTAGTGCAG | 11200 fluorescence intensity (a.u.)
2 | CTTGATTAGAATGTTTAATAACTTGTATCCGTCATGCCTGCGGAGTCACCTAGTGCAG | 60200 fluorescence intensity (a.u.)
3 | TTTTAGATTGGACGGCTGGTAAAGCAGCATGTGCTTGCTGCGGAGTCACCTAGTGCAG | 33300 fluorescence intensity (a.u.)
4 | GAAAATAGTGTTAAATTATCAAATCTCTCAGTTAGGAGGACGGAGTCACCTAGTGCAG | 6320 fluorescence intensity (a.u.)
5 | TTCAACAGTTAATTTAGGCTATTTTGGCTTCAATCCAAACCGGAGTCACCTAGTGCAG | 4960 fluorescence intensity (a.u.)
6 | ATCTTCCAATCTAAAAGGGATTGAGTAGTATATATATATCCGGAGTCACCTAGTGCAG | 6320 fluorescence intensity (a.u.)
7 | CACAAATTACTTTTCATTTGCGAATATACCGTTTTGCTTACGGAGTCACCTAGTGCAG | 21000 fluorescence intensity (a.u.)
8 | TCTGATTGCAATCATTCTTGAATTCTGATACATATTGGATCGGAGTCACCTAGTGCAG | 60300 fluorescence intensity (a.u.)
9 | CATCATGATTCAGATAATTAAATGTCTTCTTTTAACTTGGCGGAGTCACCTAGTGCAG | 12600 fluorescence intensity (a.u.)
10 | TCTTCATAATTTGGAACCGATAGAGTAGTAGTTCATTCTGCGGAGTCACCTAGTGCAG | 4030 fluorescence intensity (a.u.)
11 | GCGAAATTAATCTTTTGGTTGTTTCTACCTTTGCTCTGATCGGAGTCACCTAGTGCAG | 5540 fluorescence intensity (a.u.)
12 | CGGCTCCAATTATCTCCATCTCTCTGTCTCCGTATTGACCCGGAGTCACCTAGTGCAG | 15500 fluorescence intensity (a.u.)
13 | CCTCCCCAATTTACTCCCCTATTTACTCCCTCCACCTCCCCGGAGTCACCTAGTGCAG | 3190 fluorescence intensity (a.u.)
14 | TGGATGATTTTCGGACGTTAGATTTGATGAATAAGGTCCGCGGAGTCACCTAGTGCAG | 11000 fluorescence intensity (a.u.)
15 | ATATATATATATAATTTGCTTAATTCCGAGTCCATATGAGCGGAGTCACCTAGTGCAG | 7060 fluorescence intensity (a.u.)
16 | TTTGTGATTAAGCTCTTGGTCTCGTCTCCGCGAGCTCAGCCGGAGTCACCTAGTGCAG | 5540 fluorescence intensity (a.u.)
17 | TTTATATGTACGTAATTAATTTAGATGAGTGATGAAGATACGGAGTCACCTAGTGCAG | 14300 fluorescence intensity (a.u.)
18 | CACAAATCATAACTGCGGAAGCAACCATAATTTATTGCCCCGGAGTCACCTAGTGCAG | 8930 fluorescence intensity (a.u.)
19 | TTGTTTGAAAATTAAGATGATTGAAGAGTGAACCTTATTACGGAGTCACCTAGTGCAG | 23700 fluorescence intensity (a.u.)
20 | ACCCAATTACGGAGTAGAGTTTAGCAGTCCCTAAGTAAGCCGGAGTCACCTAGTGCAG | 3490 fluorescence intensity (a.u.)
21 | AGTGATACATCACAAAATTACATATACAAATTTATGGTAGCGGAGTCACCTAGTGCAG | 3400 fluorescence intensity (a.u.)

Row | Sequence | binding signal
22 | AACGATCTGCAGCAAGTTAATTAATTTTATGTGCGTCGATCGGAGTCACCTAGTGCAG | 4580 fluorescence intensity (a.u.)
23 | AATATCTAATTTTGACTGTAGATATCTACTCAAATATTGTCGGAGTCACCTAGTGCAG | 4740 fluorescence intensity (a.u.)
24 | TTAGAGTATATGATATAATAATCAATCATATCTCAATCCTCGGAGTCACCTAGTGCAG | 7620 fluorescence intensity (a.u.)
25 | AGTTGATAAATTTCAGAAAATTTTGATGACAAAGCAAAGCCGGAGTCACCTAGTGCAG | 12800 fluorescence intensity (a.u.)
26 | CGCTAATTCCCAGTCAGTCACTGTCAAAATGTTTGTGGTACGGAGTCACCTAGTGCAG | 39600 fluorescence intensity (a.u.)
27 | TTTATTTGATTTTCTTCTTGTTATTTACATGTTCACAATGCGGAGTCACCTAGTGCAG | 13400 fluorescence intensity (a.u.)
28 | TGCTGGAAGCCTAATTATTAATGCTGATGAATCAAGACGCCGGAGTCACCTAGTGCAG | 4020 fluorescence intensity (a.u.)
29 | TCGTAGTTATGTCCAATCTAATTATAAATTATTAGAAATTCGGAGTCACCTAGTGCAG | 7860 fluorescence intensity (a.u.)
30 | TTCCTTCAATCATAAATATTTGATATTTATGACAAGATTTCGGAGTCACCTAGTGCAG | 18700 fluorescence intensity (a.u.)
31 | AGCCTATACTGTTGCCTAATTGGCAATTGTCAAGTCAACCCGGAGTCACCTAGTGCAG | 23000 fluorescence intensity (a.u.)
32 | CAAGTATAGTCACAGTGATTGATTAATTAGAAACCTGATCCGGAGTCACCTAGTGCAG | 51800 fluorescence intensity (a.u.)
33 | CCAGCTGATCAAGAGCTCTTAATTAGCTAGCTAGTGATTACGGAGTCACCTAGTGCAG | 7680 fluorescence intensity (a.u.)
34 | ACATTGATGGACTGTAGGACTTGTGTAGCGCAAGATGTGTCGGAGTCACCTAGTGCAG | 28800 fluorescence intensity (a.u.)
35 | AATAAATAACATCTTCAATTTATACAATGGTAAGTAAGTTCGGAGTCACCTAGTGCAG | 7430 fluorescence intensity (a.u.)
36 | CCACACAAACTGATAGTTTGTTGTCGTTTACTAGACAACCCGGAGTCACCTAGTGCAG | 6050 fluorescence intensity (a.u.)
37 | TTTGATGGCTAAACTGATGGAGATACATGATAGCATGTAGCGGAGTCACCTAGTGCAG | 24000 fluorescence intensity (a.u.)
38 | CTCAAAATAAATTGGTGTGGTGATGAAGCCATGGGTGTATCGGAGTCACCTAGTGCAG | 23100 fluorescence intensity (a.u.)
39 | TATAATGACATATATAAGATTGGTTTAAGGTGTTATCAACCGGAGTCACCTAGTGCAG | 19400 fluorescence intensity (a.u.)
40 | ATATTGATCATGCGGTTAAGTAGATTTTACATTTATATGCCGGAGTCACCTAGTGCAG | 3420 fluorescence intensity (a.u.)
41 | ACTCAAATTGGTATACTCCATATTTTGTGCTGGAGCTAGGCGGAGTCACCTAGTGCAG | 17900 fluorescence intensity (a.u.)
42 | AATAGATGAAGAATAAATATGATTGGTAGAGAAGAGAGATCGGAGTCACCTAGTGCAG | 5860 fluorescence intensity (a.u.)
